Reference: paper PMC6602471
The other results are listed elsewhere or left out. At the low end of the ranking the order means little.

target: T1, ETS1 (UniProt P14921); assay: custom PBM; conditions: custom protein-binding microarray; buffer, salt, pH and temperature not stated; high values mean tight binding; double strand, one strand shown
T1 sequence: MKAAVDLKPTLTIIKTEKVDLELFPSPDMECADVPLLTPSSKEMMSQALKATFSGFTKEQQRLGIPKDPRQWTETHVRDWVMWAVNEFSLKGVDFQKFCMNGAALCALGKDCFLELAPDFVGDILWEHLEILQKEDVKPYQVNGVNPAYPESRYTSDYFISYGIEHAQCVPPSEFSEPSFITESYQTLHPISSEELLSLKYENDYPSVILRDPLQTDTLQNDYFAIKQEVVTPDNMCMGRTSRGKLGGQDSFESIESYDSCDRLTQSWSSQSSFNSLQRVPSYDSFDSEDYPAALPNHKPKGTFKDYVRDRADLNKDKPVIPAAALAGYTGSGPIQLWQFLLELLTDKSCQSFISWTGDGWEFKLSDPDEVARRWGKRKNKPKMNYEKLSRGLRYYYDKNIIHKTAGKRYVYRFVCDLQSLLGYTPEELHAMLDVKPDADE

Sequence | binding signal (log fluorescence intensity)
GATTAATTTCTGCCCTTATTGGCACGTGCCATAACAGTCTTGATTCGCTTGACGCTGCTG | 8.27
TGTCGGGTAAGGGAATGTAGATCACGTGCATGAAAAGTCTTGATTCGCTTGACGCTGCTG | 8.11
TACTGACTTATATATTCGAATGCACATGAATAGACCGTCTTGATTCGCTTGACGCTGCTG | 8.06
TGTCGGGTAAGGGAATGTAGATCACGGGAATGAAAAGTCTTGATTCGCTTGACGCTGCTG | 8.26
GTGTATAGGATCCCATCCAAAACACGTGTTAAAATGGTCTTGATTCGCTTGACGCTGCTG | 8.22
CACAATTTTTACAGTAATGTAGCACGCGTAACTTCTGTCTTGATTCGCTTGACGCTGCTG | 8.2
CTGGGACTTGACCCAACTCTGCCACGTGGGTAGTTTGTCTTGATTCGCTTGACGCTGCTG | 8.1
TCCGGCTACCAGCTCCACCCACTTCAGTCCTTGTAGGTCTTGATTCGCTTGACGCTGCTG | 8.04
CTGGGACTTGACCCAACTCTGCCATGTGGGTCGTTTGTCTTGATTCGCTTGACGCTGCTG | 8.2
CGCAAGTGTCGTAAACGTCGGATATCCGGTTCTTCTGTCTTGATTCGCTTGACGCTGCTG | 11.8
TGTCGGGTAAGGGAATGTAGATCACGTGAATGATAAGTCTTGATTCGCTTGACGCTGCTG | 8.28
CACAATTTTTACAGTAATGTGGCACGCGTAACTCCTGTCTTGATTCGCTTGACGCTGCTG | 8.25
TACTGACTTATATATGCGAATGCACATGAATAGACCGTCTTGATTCGCTTGACGCTGCTG | 8.15
TACTGACTAATATATGCGAATGCACATGAATAGACCGTCTTGATTCGCTTGACGCTGCTG | 8.26
TCCGGCTACCAGCTCCACCCACTTCAGGCCTTGGAGGTCTTGATTCGCTTGACGCTGCTG | 8.32
CGGAAGTGTCGTAAACGTCGGATATCCGGTTCTTCTGTCTTGATTCGCTTGACGCTGCTG | 11.9
GTGTATAGGATCCCAGCCAACACACGTGTTAAAATGGTCTTGATTCGCTTGACGCTGCTG | 8.27
CGGAAGTGTCGTAAGCGTCGGATATCCGGTTCTTCTGTCTTGATTCGCTTGACGCTGCTG | 11.7
TACTGACTTATATATGCGAATGCATATGAATAGACCGTCTTGATTCGCTTGACGCTGCTG | 8.38
GGAAAAGGGCCCAGGGTAACACCGGAAGTGGGCTTAGTCTTGATTCGCTTGACGCTGCTG | 11.8
GCTGCTGCGGTACATACCCCACCGGATGTGACCCCGGTCTTGATTCGCTTGACGCTGCTG | 10.5

Sequence | binding signal (log fluorescence intensity)
CACAATTTTTACAGCAATGTAGCACGCGTAACTCCTGTCTTGATTCGCTTGACGCTGCTG | 8.08
CAGCATAGGACGTCTTCCCTGAAGCAATTGATAACCGTCTTGATTCGCTTGACGCTGCTG | 8.2
CGGGGACTTGACCCAACTCTGCCACGTGGGTCGTTTGTCTTGATTCGCTTGACGCTGCTG | 8.21
TCCGGCTACAAGCTCCACCCACTTCAGGCCTTGTAGGTCTTGATTCGCTTGACGCTGCTG | 8.3
GGAAAAAGGCCCAGGGTAACCCCGGAAGTGGGCTTAGTCTTGATTCGCTTGACGCTGCTG | 10.5
CGGAAGTCTCGTAAACGTCGGATATCCGGTTCTTCTGTCTTGATTCGCTTGACGCTGCTG | 11.3
CGGAAGTGTCCTAAACGTCGGATATCCGGTTCTTCTGTCTTGATTCGCTTGACGCTGCTG | 11.7
AGTCGGGTAAGGGAATGTAGATCACGTGAATGAAAAGTCTTGATTCGCTTGACGCTGCTG | 8.33
TACTGACTTCTATATGCGAATGCACATGAATAGACCGTCTTGATTCGCTTGACGCTGCTG | 8.39
TAAAGGGAAGACGGGTGTGGTAGTTCCGGGTATTAAGTCTTGATTCGCTTGACGCTGCTG | 8.31
GGAAAAAGGCCCAGGGTAACACCCGAAGTGGGCTTAGTCTTGATTCGCTTGACGCTGCTG | 8.23
TACTGACTTATATATGCGTATGCACATGAATAGACCGTCTTGATTCGCTTGACGCTGCTG | 8.26
TCCGGCTACCAGCTCCACCCACTTCAGACCTTGTAGGTCTTGATTCGCTTGACGCTGCTG | 8.32
TAAAGGGAAGACGGTTGTGGTAGTTCCGGGTATTAGGTCTTGATTCGCTTGACGCTGCTG | 8.47
CGGAAGTGTCGTAAACGTCGGATATCCGTTTCTTCTGTCTTGATTCGCTTGACGCTGCTG | 9.45
CTGGGACTTGACCCAACTCTGCCACGTGGGTGGTTTGTCTTGATTCGCTTGACGCTGCTG | 8.18
GCTGCTACGGTGCATACCCCACCGGATGTGACCCCGGTCTTGATTCGCTTGACGCTGCTG | 10.3
TCCGGCTACCAGCTCTACCCACTTCAGGCCTTGTAGGTCTTGATTCGCTTGACGCTGCTG | 8.21
TAAAGGGAAGACGGTTGTGGTAGTTCCGGGTACTAAGTCTTGATTCGCTTGACGCTGCTG | 8.61
GCTGCTGCGGTGCATACTCCACCGGATGTGACCCCGGTCTTGATTCGCTTGACGCTGCTG | 10
GGAATAAGGCCCAGGGTAACACCGGAAGTGGGCTTAGTCTTGATTCGCTTGACGCTGCTG | 11.9

Sequence | binding signal (log fluorescence intensity)
GTGTATAGGATCCCATCCGACACACGTGTTAAAATGGTCTTGATTCGCTTGACGCTGCTG | 8.18
TAAAGGGAAGACAGTTGTGGTAGTTCCGGGTATTAAGTCTTGATTCGCTTGACGCTGCTG | 8.42
CACAATTTTTACAGTCATGTAGCACGCGTAACTCCTGTCTTGATTCGCTTGACGCTGCTG | 8.17
GCTGCTGCGGTGCATACCCGACCGGATGTGACCCCGGTCTTGATTCGCTTGACGCTGCTG | 10.5
CAGCATAGGACTTTTTCCCTGAAGCAATTGATAACCGTCTTGATTCGCTTGACGCTGCTG | 8.27
CGGAAGTGTCGTAAACGTCGGATATCTGGTTCTTCTGTCTTGATTCGCTTGACGCTGCTG | 8.37
CAGCATAGGACTTCTTCCCGGAAGCAATTGATAACCGTCTTGATTCGCTTGACGCTGCTG | 9.98
CACAATTTTTACAGTAATGTAGCACGCGTATCTCCTGTCTTGATTCGCTTGACGCTGCTG | 8.06
GCTGCTGCGGTGCATACCCCACCGGATGTGATCCCGGTCTTGATTCGCTTGACGCTGCTG | 10.1
TACTGACTTATATATGCGAAAGCACATGAATAGACCGTCTTGATTCGCTTGACGCTGCTG | 8.26
CAGTATAGGACTTCTTCCCTGAAGCAATTGATAACCGTCTTGATTCGCTTGACGCTGCTG | 8.22
GATTAATTTCTGCCCTTATTCGCACGTCCCATAACAGTCTTGATTCGCTTGACGCTGCTG | 8.26
TAAAGGGAAGACGGTTGTGGTAGTTCCGGGTCTTAAGTCTTGATTCGCTTGACGCTGCTG | 8.36
GATTAATTTCTGCCCTTATTCGCACGTGCAATAACAGTCTTGATTCGCTTGACGCTGCTG | 8.3
TAAAGGGAAGACGGTTGTGGTAGTTCCCGGTATTAAGTCTTGATTCGCTTGACGCTGCTG | 8.32
CGGAAGTGTCGTAAACGTCGGATATCCCGTTCTTCTGTCTTGATTCGCTTGACGCTGCTG | 8.7
TACTGACTTATATCTGCGAATGCACATGAATAGACCGTCTTGATTCGCTTGACGCTGCTG | 8.21
TAAGGGGAAGACGGTTGTGGTAGTTCCGGGTATTAAGTCTTGATTCGCTTGACGCTGCTG | 8.71
TAAAGGGAAGACGATTGTGGTAGTTCCGGGTATTAAGTCTTGATTCGCTTGACGCTGCTG | 8.5
GATTAATTTCTGCCCTTATTCGAACGTGCCATAACAGTCTTGATTCGCTTGACGCTGCTG | 8.42
GTGTATAGTATCCCATCCAACACACGTGTTAAAATGGTCTTGATTCGCTTGACGCTGCTG | 8.16

Sequence | binding signal (log fluorescence intensity)
CAGCATAGGACTTCGTCCCTGAAGCAATTGATAACCGTCTTGATTCGCTTGACGCTGCTG | 8.36
TCCGGCTACCAGCTCCACCCACTTCAGGCATTGTAGGTCTTGATTCGCTTGACGCTGCTG | 8.34
TAAAGGGAAGACGGTTGTGGAAGTTCCGGGTATTAAGTCTTGATTCGCTTGACGCTGCTG | 8.76
TGTCGGGTAGGGGAATGTAGATCACGTGAATGAAAAGTCTTGATTCGCTTGACGCTGCTG | 8.11
GCTGCTGGGGTGCATACCCCACCGGATGTGACCCCGGTCTTGATTCGCTTGACGCTGCTG | 10.3
TACTCACTTATATATGCGAATGCACATGAATAGACCGTCTTGATTCGCTTGACGCTGCTG | 8.35
CAGCATAGGACTTCTTCCCTGAGGCAATTGATAACCGTCTTGATTCGCTTGACGCTGCTG | 8.02
GTGTATAGGATCCCATCCAACATACGTGTTAAAATGGTCTTGATTCGCTTGACGCTGCTG | 8.21
TACTGACTTATATAAGCGAATGCACATGAATAGACCGTCTTGATTCGCTTGACGCTGCTG | 8.41
GGAAAAAGGCCCAGGGTAACACCGGAAGTGGGCCTAGTCTTGATTCGCTTGACGCTGCTG | 12.1
CGGAAGTGTCGTAAACGTCGGATATCAGGTTCTTCTGTCTTGATTCGCTTGACGCTGCTG | 8.51
TACTGACTTATATATGCGAATGCACATGCATAGACCGTCTTGATTCGCTTGACGCTGCTG | 8.06
TGTCGGGTAAGGGAATGTAGATCAAGTGAATGAAAAGTCTTGATTCGCTTGACGCTGCTG | 8.26
TTCTGACTTATATATGCGAATGCACATGAATAGACCGTCTTGATTCGCTTGACGCTGCTG | 8.11
TAAAGGGAAGACGGTTGTGGTAGTTCCAGGTATTAAGTCTTGATTCGCTTGACGCTGCTG | 8.13
GCTGCTGCGGTGCATACCCCACCGGATATGACCCCGGTCTTGATTCGCTTGACGCTGCTG | 9.71
TACAGACTTATATATGCGAATGCACATGAATAGACCGTCTTGATTCGCTTGACGCTGCTG | 8.43
TACTGACTTATATATGCGAATGCACATGTATAGACCGTCTTGATTCGCTTGACGCTGCTG | 8.25
